Assay results: the supplement of paper PMC11417369
± gives the standard deviation of the averaged measurements. This is one part of the list.

test system: PfAP2-EXP AP2 domain (GST-tagged); assay: gcPBM binding intensity (ln(normalized median fluorescence intensity)); higher = stronger DNA binding
Outline: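 In this array assay, P. falciparum DNA-binding domains with a GST tag, expressed in E. coli, were applied for 1 h to primer-extended double-stranded 36-bp intergenic genomic probes and negative controls on an Agilent 4 × 180k array. Bound protein was visualised with Alexa488 anti-GST antibody at 488 nm. Binding intensity is the highest Masliner-normalised natural-log median intensity across replicate spots of either probe orientation.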

Sequence	gcPBM binding intensity (ln)
AAATGAGATATAAAATGTACATATTGTAAGTAAACA [XGTACX_site1237]	8.79 ± 0.42
AAATATTTTTAGAGTGCATGTAATAAAAATATAATG [TGCATGCA_site19]	8.98 ± 0.26
AAGATCGCATGAAATGAACACACATAAAAAAAATAT [CACACA_site9353]	8.73 ± 0.53
CGTTGGTATTAAAAGGTGCAATGAAATAATATATTA	8.79 ± 0.16
TAAAATTTATAAACTACACACATATATATAGTAATA [CACACA_site3728]	8.29 ± 0.45
AATGTAACAACTTTTTGTACTTAAGAAATAATAAAT [XGTACX_site3310]	8.41 ± 0.32
TAAAAAATTATATTCACACACATACCCATATATATA [CACACA_site4458]	8.6 ± 0.28
TAATTTAGATATATAAAGAATTAAAGTTAACATTCT [CACACA_negctrl_site726]	8.17 ± 0.54
TTAAGAAAAAAAAAAAGTACACACATATAATATATA [XGTACX_site6268]	8.57 ± 0.44
TTTTTCAGATCCTATATAGTATCATATAAATTCCAT [CACACA_negctrl_site56]	8.49 ± 0.26
ATATATATATAATAAAGTACAAATTCTAAATGATAT [XGTACX_site570]	9.52 ± 0.2
TATCTTATGTCTGAAAGTACAAATTTTTTTCTACTT [XGTACX_site2208]	8.38 ± 0.28
ATTATCTATCGTTTTTGTACTTACACCTTAATACAA [XGTACX_site7337]	9.09 ± 0.42
ACTACGAATGGTAGAGTGCAGTCTGGAGAAAAGTAC [GTGCAC_site9681]	9.3 ± 0.38
CTTTTTTTTTTTTTTGCGCACTGTTTAAAGGGAAAT [GTGCAC_site9815]	8.73 ± 0.23
GTGTGATATAATTTTTTTAGAGCTTTATAATATTAT [CACACA_negctrl_site233]	8.43 ± 0.32
CAACCATTTGTAGGTAAACACACATTATTATTAATA [CACACA_site8842]	8.31 ± 0.39
TATGTTGATGATATTACACACCCAATGAGAAAAGGA [CACACA_site7060]	8.85 ± 0.49
GTTAAGCAATATATATGTACTTATGGAATAGAAAAA [XGTACX_site3693]	8.78 ± 0.42
AAGTTACAGAATATCACACATAAATTATCTGTATAT [CACACA_site5116]	8.27 ± 0.3
TCAATTAATTATTTTTGTACACAAGAATTACTGAAT [XGTACX_site6401]	8.4 ± 0.29
TATTTGTAATATAACACACACAAAAAAAGACTCGGA [CACACA_site1681]	8.8 ± 0.45

Sequence	gcPBM binding intensity (ln)
TTTGTCAAATAATATTGTACTAAAAAATTTTGCCTT [XGTACX_site7485]	8.44 ± 0.45
ATACACACAGCCTAAACATGCATATAGAAAAAAGAA [TGCATGCA_site1028]	9.21 ± 0.29
TTTATTTACTATTAAAGTACTAAATCATATAATTAT [XGTACX_site2580]	8.15 ± 0.32
TGTTTATACATCAGGTGTACGCAAAATAATTGTATG [XGTACX_site206]	8.63 ± 0.31
TTAACACATGCTTGGTCACACACGTATGCATATTTA [CACACA_site2127]	8.76 ± 0.39
TATACATATACATATACACACACACCCATAAATAAA [CACACA_site8372]	9.05 ± 0.38
TTAGTTTATTGGTACTGTACTTTTTTTTTCTCCATT [XGTACX_site8618]	8.81 ± 0.58
TTATTTAAAATTTTTATGCGTATATATATAGGAACA [CACACA_negctrl_site388]	8.62 ± 0.4
TATCATATATGAAGGTGTACGATTTATTATATAAAT [XGTACX_site7010]	8.65 ± 0.35
ATTTTTGAACGGTACAGTACAGAATTTAATTAACCC [XGTACX_site47]	9.13 ± 0.54
AATTTTTATTTGTACACACATACATATATATTATAT [CACACA_site993]	8.88 ± 0.23
CACAAAATAAATTAAACACACAACATCATAGATGTA [CACACA_site4619]	8.35 ± 0.5
ATAAATAATATAAATACACACTAAAAAAAATATATA [CACACA_site4456]	8.62 ± 0.54
ATATAATCAGCTTCTCTTTTATGCTAAAAAAAAAAA [CACACA_negctrl_site1310]	8.25 ± 0.3
TTTATATATTTCATAATACACACGAAAAAAAAAAAA [CACACA_site2970]	8.61 ± 0.45
TTTTTATTTACACTTTTTATTTATATATTATGTACG [CACACA_negctrl_site158]	8.87 ± 0.32
TGTCATCATCTTAAATGTACAAAAAGGAAATATAAA [XGTACX_site1529]	8.9 ± 0.49
TTTTTATTAAGACATGCATGGAAACGCACTATTTTA [TGCATGCA_site999]	9.04 ± 0.12
TTTATATCATTTCTTAAAAAAAAGGAGGTAATAGAC [TGCATGCA_negctrl_site555]	9.25 ± 0.28
AATAAATAAATATATACACACATATATGTCTACATA [CACACA_site3158]	8.3 ± 0.4
TATATATGCATTAAATGATGTTCCTGTTTTTTAAAA [CACACA_negctrl_site1378]	8.71 ± 0.44
ATACGAAGTACGTACACACACTTATATGTTACTAAA [CACACA_site7812]	8.6 ± 0.27
